{"source": "PubChem BioAssay AID588855", "about": "(National Center for Advancing Translational Sciences (NCATS), 2011)", "note": "About 5,000 (1.2%) of roughly 410,000 compounds were called active. The inconclusive results got no clear call from the source; some entries with a clear call stand among them for comparison. Calls follow the shape of the dose curve; as a rule, active = well fitted inhibition curve with a large enough effect; inconclusive = small, poorly fitted or top-dose-only effect; inactive = no such curve, though single readings can be large or run the other way. Potencies of inconclusive entries are doubtful fits and often do not repeat. Potency is read from the fitted curve at half-maximal effect; tags tell the direction and shape of the fitted curve."}
{"experiment": "qHTS for Inhibitors of TGF-b; also: nearly all actives have a fitted effect of over 65% in size", "conditions": "HepG2 CAGA-GFP TGF-b/SMAD3 reporter, GFP fluorescence, 18 h, TGF-beta stimulated, 500 pg/mL final; series mostly up to 46.1 µM", "procedure,_shortened": "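Cell-based qHTS in HEPG2 carrying a CAGA-GFP Smad reporter; compounds added before 500 pg/mL final TGF-beta, 18 h incubation at 37 degrees C, GFP fluorescence quantified per cell by imaging cytometry.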"}
{"compound": "COc1ccc(C)cc1Nc1n[n+](C)c(-c2ccc(O)cc2O)s1", "Potency": "inconclusive: 6.31 µM [inhibitor, single point]"}
{"compound": "O=C(O)C1C2CCC(C2)C1C(=O)Nc1ccc(Cl)c(Cl)c1", "note": "(stereo not given)", "Potency": "inconclusive: 2.82 µM [inhibitor, single point]"}
{"compound": "CCN(c1ccccc1)S(=O)(=O)c1ccc(-c2cc(C)no2)s1", "Potency": "inconclusive: 22.4 µM [inhibitor, single point]"}
{"compound": "CCN(CC)S(=O)(=O)c1cccc(-c2nnc(SCc3nc4ccccc4s3)o2)c1", "Potency": "inconclusive: 35.5 µM [inhibitor, single point]"}
{"compound": "Cc1ccc(-c2nnc(N3CCN(C(=O)Cn4c(=O)n(C)c5ccccc54)CC3)c3ccccc23)cc1", "Potency": "inactive"}
{"compound": "COc1ccc(-c2nnc(NC(=O)c3ccc([N+](=O)[O-])o3)o2)c(OC)c1", "Potency": "inconclusive: 35.5 µM [inhibitor, single point]"}
{"compound": "O=C(NC1CC2CCCC(C1)N2C(=O)Nc1ccc(F)cc1)c1ccccc1", "note": "(stereo not given)", "Potency": "inactive"}
{"compound": "O=C(/C=C/c1ccc([N+](=O)[O-])cc1)Nc1ncc([N+](=O)[O-])s1", "Potency": "active: 12.6 µM"}
{"compound": "CSc1ccccc1NC(=O)CN(c1ccccc1Br)S(C)(=O)=O", "Potency": "inactive"}
{"compound": "CC(C)(C)c1ccc(S(=O)(=O)NNC(=O)C2CCN(Cc3cccc(F)c3)CC2)cc1", "Potency": "inconclusive: 35.5 µM [inhibitor, single point]"}
{"compound": "CCOC(=O)c1sc(=NC(=O)CCS(=O)(=O)c2ccccc2)n(C)c1C", "Potency": "inactive"}
{"compound": "c1ccc(CCCNCCCn2cnc3c(OCc4ccccc4)ncnc32)cc1", "Potency": "inconclusive: 35.5 µM [inhibitor, single point]"}
{"compound": "Cc1cccc(Nc2nnc(SCC(O)=C(C#N)c3nc4ccccc4[nH]3)s2)c1", "Potency": "inconclusive: 35.5 µM [inhibitor, single point]"}
{"compound": "CCN(CC)c1c([N+](=O)[O-])c(=O)sc2ccccc12", "Potency": "inconclusive: 0.282 µM [inhibitor, full curve, poor fit]"}
{"compound": "Nc1cc(S(=O)(=O)c2ccc(N3CCCCC3)c(N)c2)ccc1N1CCCCC1", "Potency": "inconclusive: 14.1 µM [inhibitor, single point]"}
{"compound": "Nn1c(Cc2cccc3ccccc23)nnc1SCc1c(F)cccc1Cl", "Potency": "inconclusive: 6.31 µM [inhibitor, single point]"}
{"compound": "Cc1n[nH]c(=O)c2c(NC(=O)CSc3c(Cl)cccc3Cl)oc(C)c12", "Potency": "inconclusive: 15.8 µM [inhibitor, single point]"}
{"compound": "Cc1cc(C)cc(N(CC(=O)NCC2CCCO2)C(=O)CCC(=O)Nc2nccs2)c1", "note": "(stereo not given)", "Potency": "inconclusive: 3.98 µM [inhibitor, single point]"}
{"compound": "O=C(Nc1nc2cc3c(cc2s1)OCO3)C1CC1", "Potency": "inactive"}
{"compound": "O=C(Nc1nc(-c2ccccc2)ns1)c1cccs1", "Potency": "inconclusive: 17.8 µM [inhibitor, single point]"}
{"compound": "CS(=O)(=O)N1CCC(C(=O)NCc2ccc(Cl)cc2Cl)CC1", "Potency": "inconclusive: 15.8 µM [inhibitor, single point]"}
{"compound": "COc1ccccc1OC(C)C(=O)N1CC(=O)Nc2ccccc21", "note": "(stereo not given)", "Potency": "inconclusive: 20 µM [inhibitor, single point]"}
{"compound": "O=C(NNC(=O)c1ccco1)c1csc(N2CCOCC2)n1", "Potency": "inconclusive: 5.62 µM [inhibitor, single point]"}
{"compound": "COC(=O)c1ccccc1-c1ccc(/C=N/Nc2nc(N3CCCC3)nc(N3CCCC3)n2)o1", "Potency": "active: 12.6 µM"}
{"compound": "CC(=O)c1ccc(Nc2ccc([N+](=O)[O-])c3nonc23)cc1", "Potency": "active: 11.2 µM"}
{"compound": "NS(=O)(=O)c1ccc(N2N=C(c3ccccc3)CC2c2ccccc2Br)cc1", "note": "(stereo not given)", "Potency": "inconclusive: 35.5 µM [inhibitor, single point]"}
{"compound": "CC(=O)C1=C(C)OC(N)=C(C#N)C1c1cc([N+](=O)[O-])ccc1Cl", "note": "(stereo not given)", "Potency": "inconclusive: 11.2 µM [inhibitor, single point]"}
{"compound": "CC/C(=C\\c1ccccc1)c1cccc2oc3ccccc3c12", "Potency": "inconclusive: 10 µM [inhibitor, partial curve, poor fit]"}
{"compound": "COc1ccc(-c2nc3ccccc3o2)cc1NC(=O)c1ccc(Br)o1", "Potency": "inconclusive: 35.5 µM [inhibitor, single point]"}
{"compound": "Cc1ccc(OCC(=O)O)c(-n2nc3ccccc3n2)c1", "Potency": "inactive"}
{"compound": "Cc1sc2ncnc(N3CCN(S(=O)(=O)c4ccc(Br)cc4)CC3)c2c1C", "Potency": "inactive"}
{"compound": "COc1ccc(CCNC(=O)Cc2ccc(NS(=O)(=O)c3ccc(F)cc3)cc2)cc1OC", "Potency": "inactive"}
{"compound": "Cc1cc(CN2CCN(c3cccc(C)c3C)CC2)cs1", "Potency": "inconclusive: 17.8 µM [inhibitor, single point]"}
{"compound": "COc1ccc(/C=C/C(=O)Nc2ccc(C)c(S(=O)(=O)N3CCOCC3)c2)cc1", "Potency": "inactive"}
{"compound": "CCOC(=O)C1=C(CN2CCN(c3ccc(OC)cc3)CC2)NC(=O)NC1c1ccc(Cl)cc1", "note": "(stereo not given)", "Potency": "inconclusive: 12.6 µM [inhibitor, partial curve, poor fit]"}
{"compound": "CCOc1ccc(NC(=O)C2CCCN(S(=O)(=O)c3c(C)noc3/C=C/N(C)C)C2)cc1", "note": "(stereo not given)", "Potency": "inconclusive: 25.1 µM [inhibitor, single point]"}
{"compound": "COc1cc(-c2nc3ccc4ccccc4c3c3c2CCC3)cc(OC)c1O", "Potency": "active: 11.2 µM"}
{"compound": "Cc1ccc(/C=N/n2c(-c3ccco3)n[nH]c2=S)s1", "Potency": "inactive"}
{"compound": "COc1ccc(NC(=O)Nc2cccc([N+](=O)[O-])c2)cc1Cl", "Potency": "inconclusive: 35.5 µM [inhibitor, single point]"}
{"compound": "Cn1c(-c2ccccc2)cccc1=O", "Potency": "inactive"}
{"compound": "CCc1ccccc1NC(=O)c1nnn(Cc2ccc(Cl)cc2)c1N", "Potency": "inconclusive: 28.2 µM [inhibitor, single point]"}
{"compound": "CCOc1ccccc1Nc1nc(-c2sc(NC(=O)c3cccc(Cl)c3)nc2C)cs1", "Potency": "inactive"}
{"compound": "O=C(CCNS(=O)(=O)c1ccc(Br)cc1)NNC(=O)C1COc2ccccc2O1", "note": "(stereo not given)", "Potency": "inactive"}
{"compound": "COc1ccc(NC(=O)CN(C)S(=O)(=O)c2ccc(Br)s2)cc1OC", "Potency": "inactive"}
{"compound": "Cc1cc(Br)cc2c(C(=O)NCC3CCCO3)cc(-c3ccccc3)nc12", "note": "(stereo not given)", "Potency": "inconclusive: 0.316 µM [inhibitor, full curve]"}
